Experimental data: the antibiotic and cytotoxicity screens of Wong et al. (2023)
Some of the results follow.

Tests used:
[1] = tested on: HSkMC (human skeletal muscle cells); experiment: cytotoxicity call (relative viability < 0.9); details: 10 µM
[2] = tested on: HepG2; experiment: cytotoxicity call (relative viability < 0.9); details: 10 µM
[3] = tested on: S. aureus RN4220; experiment: growth inhibition call (relative growth <= 0.2); details: 50 µM

Compound	cytotoxicity call [1]	cytotoxicity call [2]	growth inhibition call [3]
C=CCOC(=O)[C@@H]1[C@H]2C(=O)O[C@H](c3ccccc3)[C@H](c3ccccc3)N2[C@H](c2ccc(OCCOC(=O)[C@@H]3C[C@@H]4C(=O)NCC(=O)N4[C@@H]3c3cccc(OCCO)c3)cc2)[C@@]12C(=O)Nc1ccccc12	inactive	inactive	inactive
C[C@@H]1CN([C@H](C)CO)C(=O)Cc2cc(NC(=O)Cc3ccccc3)ccc2O[C@@H]1CN(C)Cc1ccc(-c2ccccc2)cc1	inactive	active	inactive
COc1ccc2c(c1)[C@@H](NCC=C(C)C)[C@H](C)[C@H]2c1ccccc1	inactive	inactive	inactive
C[C@H](CO)N1C[C@H](C)[C@@H](CN(C)Cc2ccc(Oc3ccccc3)cc2)Oc2ccc(NC(=O)Nc3ccc(F)cc3)cc2C1=O	inactive	inactive	inactive
COC(=O)C1=C(C)NC(C)=C(C(=O)OCCN2CCN(C(c3ccccc3)c3ccccc3)CC2)C1c1cccc([N+](=O)[O-])c1 (centres undefined)	inactive	active	inactive
C[C@@H]1CCCCO[C@H](CN(C)C(=O)Cc2ccccc2)[C@H](C)CN([C@@H](C)CO)C(=O)c2cc(NC(=O)CCC(F)(F)F)ccc2O1	inactive	inactive	inactive
C[C@H](CO)N1C[C@H](C)[C@H](CN(C)C(=O)c2ccccc2)Oc2cc(C#CC3(O)CCCC3)ccc2S1(=O)=O	inactive	inactive	inactive
CCS(=O)(=O)N1C[C@]2(C1)CN([C@@H](CO)c1[nH]c3cc(ccc3c12)OC)S(=O)(=O)c1cn(cn1)C	inactive	inactive	inactive
C[C@H](CO)N1C[C@H](C)[C@H](CN(C)Cc2ccc(Oc3ccccc3)cc2)Oc2ccc(NS(=O)(=O)c3ccc(Cl)cc3)cc2CC1=O	active	active	inactive
COC(=O)c1ccc(Cn2cc(C(=O)NO)nn2)o1	inactive	inactive	inactive
C[C@H](CO)N1C[C@H](C)[C@@H](CN(C)S(=O)(=O)c2cccs2)Oc2ccc(NS(=O)(=O)c3cccs3)cc2CC1=O	inactive	active	inactive
CCCC(=O)OC1(C(=O)CO)CCC2C3CCC4=CC(=O)CCC4(C)C3C(O)CC21C (centres undefined)	inactive	inactive	inactive
COc1ccc(S(=O)(=O)Nc2ccc3c(c2)CC(=O)N([C@@H](C)CO)C[C@@H](C)[C@H](CN(C)Cc2ccc(Cl)c(Cl)c2)O3)cc1	inactive	inactive	inactive
O=C1O[C@@H](c2ccccc2)[C@@H](c2ccccc2)N2[C@@H](c3ccc(O)cc3)[C@]3(C(=O)Nc4ccc(C#CC5=CCCCC5)cc43)[C@@H](C(=O)O)[C@H]12	inactive	inactive	active
CN1C(=O)c2cc(NC(=O)c3cccs3)ccc2OC[C@H]2O[C@H](CC(=O)NCCN3CCCCC3)CC[C@H]21	inactive	inactive	inactive
CCS(=O)(=O)N1CC[C@@H]2CO[C@H](CN3CCN(C)CC3)[C@@H]2C1	inactive	inactive	inactive
C[C@@H]1CCCCO[C@@H](CN(C)Cc2ccncc2)[C@H](C)CN([C@H](C)CO)C(=O)c2cc(NC(=O)Nc3ccc(C(F)(F)F)cc3)ccc2O1	inactive	active	inactive
Cn1c(N)c(NC(=O)c2cccs2)c(=O)[nH]c1=O	inactive	inactive	inactive
CC[C@@H](Sc1n[nH]c(=O)[nH]c1=O)C(=O)O	inactive	inactive	inactive
C=c1ccc(S(=O)(=O)NC[C@@H](C)O)cc1=C1NN=C2c3ccccc3C(C)=NN21	inactive	inactive	inactive
[N-]=[N+]=NCc1ccccc1C[C@]1(C(=O)NC[C@@H](O)CO)N=C(c2ccc(OCCCO)cc2)O[C@H]1c1ccccc1	inactive	inactive	inactive
C[C@@H]1CN([C@H](C)CO)C(=O)c2cccc(NC(=O)C3CCOCC3)c2O[C@@H]1CN(C)S(=O)(=O)c1cn(C)cn1	inactive	inactive	inactive
C[C@H]1CN([C@@H](C)CO)C(=O)c2cc(NC(=O)Nc3ccc(C(F)(F)F)cc3)ccc2O[C@H]1CN(C)S(=O)(=O)c1ccc(F)cc1	inactive	active	inactive
C[C@@H]1CN([C@@H](C)CO)C(=O)c2cc(NC(=O)CCN3CCOCC3)ccc2O[C@@H]1CN(C)Cc1ccccc1	inactive	inactive	inactive
C[C@@H]1CCCCO[C@@H](CN(C)C(=O)c2ccccc2)[C@@H](C)CN([C@@H](C)CO)C(=O)c2cc(NC(=O)NC3CCCCC3)ccc2O1	inactive	inactive	inactive
Cn1cnc([N+](=O)[O-])c1Cl	inactive	inactive	inactive
N[C@@H](Cc1c[nH]c2ccc(O)cc12)C(=O)O	inactive	inactive	inactive
C[C@H]1CN([C@@H](C)CO)C(=O)c2cc(-c3ccc(C#N)cc3)cnc2O[C@@H]1CN(C)C(=O)Nc1ccc(C(F)(F)F)cc1	inactive	inactive	inactive
